# Measurements reported in PMC9911399, “Two distinct binding modes provide the RNA-binding protein RbFox with extraordinary sequence specificity”.
# Numbering of substitutions follows the chain as printed; changes in the protein carry UniProt numbers. Some of the results follow.
# T1: RBFOX1 RRM RbFoxmut (Fox-RRM*) (Homo sapiens, UniProt Q9NWB1 109-208, R118D;E147R;N151S;E152T)
# T1 sequence: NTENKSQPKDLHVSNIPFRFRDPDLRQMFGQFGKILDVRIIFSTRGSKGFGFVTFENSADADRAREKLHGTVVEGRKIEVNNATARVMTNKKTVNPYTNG
# B1: CGCCUCC (DNA:RNA)
# RNA: GGGAGACCGGAAUUCAGAUUGUCCCGCCUCCUUAAAUCCCGUCGUAGCCACCA
# DNA 1: CAATCTGAATTCCGGTCTCCC
# DNA 2: TGGTGGCTACGACGGGATT
# B2: GGGAAAG (DNA:RNA)
# RNA: B1 RNA with C25G, C27G, C28A, U29A, C30A, C31G
# DNA 1: CAATCTGAATTCCGGTCTCCC
# DNA 2: TGGTGGCTACGACGGGATT
# B3: CAAGAAA (DNA:RNA)
# RNA: B1 RNA with G26A, C27A, C28G, U29A, C30A, C31A
# DNA 1: CAATCTGAATTCCGGTCTCCC
# DNA 2: TGGTGGCTACGACGGGATT
# B4: GAAGGGC (DNA:RNA)
# RNA: B1 RNA with C25G, G26A, C27A, C28G, U29G, C30G
# DNA 1: CAATCTGAATTCCGGTCTCCC
# DNA 2: TGGTGGCTACGACGGGATT
# B5: AAGAGAA (DNA:RNA)
# RNA: GGGAGACCGGAAUUCAGAUUGUCCAAGAGAAUUAAAUCCCGUCGUAGCCACCA
# DNA 1: CAATCTGAATTCCGGTCTCCC
# DNA 2: TGGTGGCTACGACGGGATT
# B6: AGUUGCU (DNA:RNA)
# RNA: B5 RNA with A26G, G27U, A28U, A30C, A31U
# DNA 1: CAATCTGAATTCCGGTCTCCC
# DNA 2: TGGTGGCTACGACGGGATT
# B7: CAGAGCC (DNA:RNA)
# RNA: B5 RNA with A25C, A30C, A31C
# DNA 1: CAATCTGAATTCCGGTCTCCC
# DNA 2: TGGTGGCTACGACGGGATT
# B8: AGCUCGG (DNA:RNA)
# RNA: B1 RNA with C25A, C28U, U29C, C30G, C31G
# DNA 1: CAATCTGAATTCCGGTCTCCC
# DNA 2: TGGTGGCTACGACGGGATT
# B9: UCCAGCA (DNA:RNA)
# RNA: B5 RNA with A25U, A26C, G27C, A30C
# DNA 1: CAATCTGAATTCCGGTCTCCC
# DNA 2: TGGTGGCTACGACGGGATT
# Molecular target: T1, RBFOX1 RRM RbFoxmut (Fox-RRM*)
# Test: EMSA; HiTS-Eq, 1 nM pool, 10 min; buffer printed only for the single-RNA assays: 10 mM Tris pH 7.5, 150 mM NaCl, 3.4 mM EDTA, 0.001% NP-40, 30 C
# Conditions: tags: His6 N-terminal (pET28a); label: 5' 32P
# In short: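 These values rest on relative association constants, computed from read-count changes of each RNA species versus the control reaction and normalised to the cognate motif. Reads came from free RNA recovered by 8% native PAGE after purified RbFox RRM (wild type or mutant) at increasing concentrations was equilibrated for 10 min in 50 µL with 1 nM of a 5′-radiolabelled pool with 7 randomized nucleotides and DNA-annealed flanks.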
row,Binder,binding signal
1,B1,0.0583 KA relative to UGCAUGU
2,B2,0.0726 KA relative to UGCAUGU
3,B3,0.0895 KA relative to UGCAUGU
4,B4,0.0449 KA relative to UGCAUGU
5,B5,0.115 KA relative to UGCAUGU
6,B6,0.0923 KA relative to UGCAUGU
7,B7,0.135 KA relative to UGCAUGU
8,B8,0.108 KA relative to UGCAUGU
9,B9,0.123 KA relative to UGCAUGU
